Data from PubChem BioAssay AID1347073 (National Center for Advancing Translational Sciences (NCATS), 2019).
In all, about 45,000 compounds went through this assay and about 200 (0.44%) were called active. Roughly 7% stayed inconclusive and do not appear here. Calls come from the whole dose curve; as a rule, active = well fitted activation curve with a large enough effect; inconclusive = small, poorly fitted or top-dose-only effect; inactive = no such curve, though single readings can be large or run the other way. The list shows a part of the results.

Assay: qHTS of TDP-43 Inhibitors: NCGC Sytravon Library Screen; note: 0% is about no effect; nearly all actives have a fitted effect of over 55% in size
Conditions: yeast TDP-43 toxicity rescue, BacTiter-Glo growth, 24 h; series mostly up to 46.1 µM; growth rescue (activation): at the top concentration
How it was run: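 TDP-43-expressing yeast, pregrown in raffinose, seeded at OD600 0.02 in galactose medium with compound for 24 hr at 30 deg C. Growth read by BacTiter-Glo luminescence, so rescue of toxicity appears as activation.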

Structure (SMILES) | growth rescue (activation)
O=C(NC(NCc1cccnc1)C(Cl)(Cl)Cl)c1cccc2ccccc12 (configuration not stated) | inactive: 1.83%
COc1ccc(OCc2cc(C(=O)N3C[C@H]4CC[C@H]3C4)no2)c(Cl)c1 | inactive: 12.6%
NC(=O)c1ccc(NC(=O)COC(=O)CCC2CCCCC2)cc1 | inactive: 11.9%
COc1ccc(/C=C/C(=O)OCC(=O)Nc2cc(S(=O)(=O)N(C)C)ccc2Cl)cc1 | inactive: 12.3%
C=CSc1sc(Cl)c(N(C)C)c1[N+](=O)[O-] | inactive: 3.27%
Cc1cccc(N(Cc2cc3ccccc3[nH]c2=O)C(=O)c2cccs2)c1 | inactive: -2.45%
COc1ccc(C2N(C(C)=O)CCCN2S(=O)(=O)c2ccc(C)cc2)cc1 (configuration not stated) | inactive: -6.12%
COc1ccc(Cl)cc1NC(=O)CCNS(=O)(=O)c1cccc2nonc12 | inactive: -9.15%
O=[N+]([O-])c1ccccc1S(=O)(=O)N1CCN(C2CCCC2)CC1 | inactive: 5.19%
O=c1[nH]cnc2scc(-c3ccsc3)c12 | inactive: 30.5%
CC(=O)Nc1cccc(-c2ccnc3c2CC(C(=O)Nc2cccc(OC(F)(F)F)c2)O3)c1 (configuration not stated) | inactive: 4.54%
CCOc1ccccc1NC(=O)COc1ccc(S(=O)(=O)N2CCCC2)cc1 | inactive: 7.08%
CCn1c(SCc2ccc([N+](=O)[O-])cc2)nnc1C(C)NC(=O)c1ccc(C)cc1 (configuration not stated) | inactive: 22.9%
CCc1ccc(NC(=S)Nc2ccc3[nH]c(=O)[nH]c3c2)cc1 | inactive: 7.77%
COC(=O)CP(=O)(c1ccccc1)c1ccccc1 | inactive: -20%
CCC(C)(C)NC(=O)CN(Cc1ccco1)C(=O)CCC(=O)Nc1nccs1 | inactive: -0.953%
COc1ccc(-n2ncc(C(C)NS(=O)(=O)c3cc(F)ccc3C)c2C)cc1 (configuration not stated) | inactive: 18.7%
O=[N+]([O-])c1cc(S(=O)(=O)Nc2ccccc2)ccc1NCc1cccnc1 | inactive: -2.89%
CCN(CC)c1ccc(CNc2nc3ccccc3n2CCN2CCOCC2)cc1 | inactive: -1.03%
C(=N\Nc1nc2ccccc2[nH]1)/c1ccc2c(c1)OCO2 | inactive: 24%
COc1ccc(C(=O)/C=C/Nc2cc(C)ccn2)cc1 | inactive: 4.21%
N=c1c(C(=O)NC2CCCCC2)cc2c(=O)n3ccccc3nc2n1CCc1ccccc1 | inactive: -3.71%
COc1ccc(C2C(CC(=O)O)=C(O)C(=O)N2c2ccccc2)cc1 (configuration not stated) | inactive: -0.341%

Structure (SMILES) | growth rescue (activation)
COc1cc(CNC(C)(C)C)cc(Br)c1OCc1cccs1 | inactive: 10.1%
O=C(Cn1c(NCCO)nc2ccccc21)Nc1cccc(S(=O)(=O)N2CCCC2)c1 | inactive: 7.33%
O=C1CCCC2=C1C(c1ccsc1)CC(=O)N2c1ccccc1F (configuration not stated) | inactive: 10.9%
O=C(COc1ccc(Cl)cc1)Nc1ccc2oc(=O)ccc2c1 | inactive: -1.74%
CC(=O)c1ccc(NC(=O)CSc2cn[nH]n2)cc1 | inactive: -11.2%
COc1ccc2[nH]c(=O)c(-c3noc(-c4ccccc4)n3)cc2c1 | inactive: 5.32%
O=C(NCc1ccncc1)c1ccc(-c2ccc(F)c(F)c2)c2ccoc12 | inactive: 14.9%
OC(CNCc1ccc(-c2ccccc2)cc1)c1ccccc1 (configuration not stated) | inactive: -1.56%
C/C(CC(=O)Nc1ccc2c(c1)OCCO2)=N\NC(=O)c1cccc(O)c1 | inactive: 11.3%
COc1ccc(N2CCN(c3ccnc4cc(Cl)ccc34)CC2)cc1 | inactive: 6.68%
CCCNC(=O)CSc1nc2ccccc2c(=O)n1CCC | inactive: 2.08%
Oc1ccc(CN2CCC(Cc3ccccc3)CC2)c2cccnc12 | inactive: -19.6%
COc1ccc2c(c1OC)C(=O)OC2Nc1ccccn1 (configuration not stated) | inactive: -5.18%
Cc1ccc(-c2nn(-c3ccccc3)cc2C(=O)OCC(=O)Nc2ncc(Cl)cc2Cl)cc1 | inactive: -1.16%
O=C(NC1CCN(Cc2ccccc2)CC1)C1CCN(S(=O)(=O)c2ccc(Cl)cc2)CC1 | inactive: -4.87%
COc1ccc(C(=O)/C=C/Nc2ccc(S(=O)(=O)Nc3nc(C)cc(C)n3)cc2)c(OC)c1 | inactive: 27.5%
COC(=O)c1ccc(NC(=O)c2ccccc2-c2ccccc2C(=O)O)cc1 | inactive: 6.6%
O=C(CCN1C(=O)/C(=C/c2ccccc2Cl)SC1=S)N1CCCC1 | inactive: -9.34%
Cc1ccc(S(=O)(=O)NCCc2cc3ccc(C)c(C)c3[nH]c2=O)cc1 | inactive: 6.93%
CCOC(=O)c1[nH]c(C)c(CC(C)C)c1C | inactive: 21.2%
CC(C)(C)c1ccc(CC(=O)N2CCC2(C)C(=O)NS(=O)(=O)c2ccc(Cl)cc2)cc1 (configuration not stated) | inactive: 6.04%
CC(C)C(OC(=O)c1cc2c(s1)CCCCC2)C(=O)NC(N)=O (configuration not stated) | inactive: 32.5%
CCOc1ccc(C(=O)N[C@H](C(=O)Nc2ccccc2OC)C(C)C)cc1 | inactive: 13%

Structure (SMILES) | growth rescue (activation)
O=C(Nc1cccc(S(=O)(=O)N2CCOCC2)c1)c1ccc(=O)[nH]c1 | inactive: 16.1%
COCCNC(=O)/C(C#N)=C/c1ccc2c(c1)OCO2 | inactive: -1.46%
NC(=O)CSc1nc2c(c(=O)n1-c1ccccc1)C1(CCCCC1)Cc1ccccc1-2 | inactive: 4.14%
CCOc1ccc(C(=O)NC(C(=O)NCCc2ccc(OC(F)F)cc2)C(C)C)cc1 (configuration not stated) | inactive: -6.79%
Cc1sc(NC(=O)Cn2c(=O)oc3ccccc32)nc1-c1ccc(Cl)cc1 | inactive: 6.23%
COc1ccc(CNC(=O)c2ccc3c(c2)N(Cc2ccccc2)C(=O)c2ccccc2S3(=O)=O)cc1 | inactive: 25.7%
O=C(NC1=C(Nc2ccc(Cl)cc2)C(=O)c2ccccc2C1=O)c1ccccc1 | inactive: 17.9%
CC12CCC(C(=O)N(CC(O)CN3CCN(Cc4ccccc4)CC3)C1=O)C2(C)C (configuration not stated) | inactive: -3.66%
COc1cccc(NC(=O)CSc2nnc(-c3cccs3)n2C)c1 | inactive: 5.25%
CN1CCN(C(=O)Cn2c(C(F)(F)F)nc3ccccc32)CC1 | inactive: 27.8%
COc1ccc(N(C(=O)c2ccn[nH]2)C(C(=O)NC2CCCC2)c2ccc(F)cc2)cc1 (configuration not stated) | inactive: 4.78%
CNC(=O)C(=O)Nc1c(O)c2ccccc2[nH]c1=O | inactive: -18.2%
Cc1cc(N2CCN(c3ccccn3)CC2)n2c(nc3ccccc32)c1C#N | inactive: 4.97%
CCOc1cc(S(=O)(=O)NCc2ccccc2)ccc1Br | inactive: 33.7%
NC(=O)c1cc2cc(Cl)ccc2o/c1=N/NC(=O)c1cccs1 | inactive: -20.1%
CCc1ccc2c(CN3CCOCC3)cc(=O)oc2c1 | inactive: -17.2%
CN(C)S(=O)(=O)c1ccc(NC(=O)CN2C(=O)NC3(CCCC3)C2=O)cc1 | inactive: -1.16%
C=C(C)c1cccc(C(C)(C)NC(=O)Nc2ccccc2OCC)c1 | inactive: 0.173%
COc1cc(/C=C(/NC(=O)c2ccccc2)C(=O)N2CCOCC2)c([N+](=O)[O-])cc1OC | inactive: 19%
CCCCn1c(N)c(N(CC(C)C)C(=O)CCCSc2nncs2)c(=O)[nH]c1=O | inactive: 1.84%
O=C(c1ccccc1)N1CCCCC(Cl)C1=O (configuration not stated) | inactive: -12.3%
